From the supplement of paper PMC2702839 come the findings set out here.

Structures can show the parent of a compound that is named as a salt. This is one part of the list.

This assay deals with Schistosoma mansoni schistosomula. Description: phenotypic hit in primary schistosomula screen (any phenotype vs DMSO control) (binary (1 = hit, 0 = no phenotype)); higher = active (phenotype induced). Conditions: 1 µM; time (d): 7.
`C=C[C@H]1CN2CC[C@H]1C[C@H]2[C@H](O)c1ccnc2ccccc12` [cinchonidine]: the phenotypic hit was inactive: 0.

Consider `CC1=NCCc2c1[nH]c1cc(O)ccc21` [harmalol hydrochloride], for which the phenotypic hit is inactive: 0.

Turning to `COc1c2c(c(CC=C(C)C)c3oc(=O)c(-c4ccc(O)cc4)c(O)c13)OC(C)(C)C=C2` [lonchocarpic acid], the phenotypic hit was inactive: 0.

With `CNNC` [1,2-dimethylhydrazine hydrochloride], the phenotypic hit was inactive: 0.

Take `O=C1C=CC(=O)c2c(O)cccc21` [juglone]: the phenotypic hit is inactive: 0.

As to `CC1(C)C2(Cl)C(Cl)C(Cl)C(Cl)(C(Cl)Cl)C1(Cl)C2Cl` (stereo not drawn) [strobane], the phenotypic hit is inactive: 0.

Regarding `CNC(=O)ON=C(C)SC` [methomyl], the phenotypic hit is active: 1.

Consider `COc1cc(OC)c2c(c1)O[C@H](c1ccc(OC)c(OC)c1)[C@@H](O)C2` [catechin tetramethylether], for which the phenotypic hit is inactive: 0.

With `OC[C@@H]1CCCN2CCCC[C@H]12` [lupinine], the phenotypic hit is inactive: 0.

Take `C1CCc2nnnn2CC1` [pentetrazole]: the phenotypic hit was inactive: 0.

With `C=C[C@H]1CN2CC[C@H]1C[C@@H]2[C@@H](O)c1ccnc2ccccc12` [cinchonine], the phenotypic hit was inactive: 0.

For the compound `CC(Cc1ccc(O)cc1)NCC(O)c1cc(O)cc(O)c1` (stereo not drawn) [fenoterol hydrobromide], the phenotypic hit was inactive: 0.

Consider `COc1ccc([C@H]2Oc3c(I)c(OC)cc(OC)c3C[C@@H]2O)cc1OC` [8-iodocatechin tetramethyl ether], for which the phenotypic hit was inactive: 0.

For `CSc1nc(NC(C)C)nc(NC(C)C)n1` [prometryn], the phenotypic hit is inactive: 0.

For the compound `CC1=CC(=O)C2=C(C)C[C@H](O)[C@@H]3[C@H](OC(=O)[C@H]3C)[C@H]12` [austricine], the phenotypic hit was inactive: 0.

For the compound `ClC1=C(Cl)C2(Cl)C3C(Cl)C=CC3C1(Cl)C2(Cl)Cl` (stereo not drawn) [heptachlor], the phenotypic hit is inactive: 0.

As to `CC(C)CC(NC(=O)C(Cc1ccccc1)NC(=O)CNC(=O)CNC(=O)C(N)Cc1ccc(O)cc1)C(=O)O` (stereo not drawn) [leucine enkephalin], the phenotypic hit is inactive: 0.

Take `CC(=O)C1=C(O)[C@@H]2[C@H]3c4c[nH]c5cccc(c45)C[C@H]3C(C)(C)N2C1=O` [cyclopiazonic acid]: the phenotypic hit was active: 1.

On to `N#Cc1c(Cl)cccc1Cl` [dichlobenil], for which the phenotypic hit was inactive: 0.

For `NCCc1cccc(O)c1` [metatyramine hydrochloride], the phenotypic hit is inactive: 0.

`Cc1c(O)c(C(=O)CC(C)C)c2oc3c(C(=O)CC(C)C)c(O)c(C)c(O)c3c2c1O` [rhodomyrtoxin]: the phenotypic hit was inactive: 0.

As for `COc1cc([C@@H]2c3cc4c(cc3[C@H](O)[C@H]3COC(=O)[C@@H]23)OCO4)cc(OC)c1OC` [picropodophyllin], the phenotypic hit was inactive: 0.

`CCCC(C)C1(CC)C(=O)NC(=S)NC1=O` (stereo not drawn) [thiopental sodium]: the phenotypic hit is inactive: 0.

With `COc1c2c(cc3c1OCO3)[C@]13C=C[C@H](OC)C[C@H]1N(C2)C[C@@H]3O` [ambelline], the phenotypic hit is inactive: 0.

For `CC(C)=CC1C(C(=O)OCc2cccc(Oc3ccccc3)c2)C1(C)C` (stereo not drawn) [phenothrin], the phenotypic hit was inactive: 0.

Regarding `C[CH2][Hg][S]c1ccccc1C(=O)[O-].[Na+]` [thimerosal], the phenotypic hit was active: 1.

On to `CC1(C)C(=O)C=C[C@]2(C)[C@H]3CC[C@@]4(C)[C@H](c5ccoc5)OC(=O)[C@H]5O[C@]54[C@]3(C)[C@H](O)C[C@@H]12` [deacetylgedunin], for which the phenotypic hit was inactive: 0.

Take `Nc1ccncc1` [4-Aminopyridine]: the phenotypic hit is inactive: 0.

Regarding `O=C(O)CNCP(=O)(O)O` [glyphosate], the phenotypic hit was inactive: 0.

For `C[C@]12CC[C@H](O)C[C@@H]1CC[C@@H]1[C@@H]2CC[C@]2(C)[C@@H](O)CC[C@@H]12` [5alpha-androstan-3beta,17beta-diol], the phenotypic hit was inactive: 0.

Consider `CC[C@H](C)[C@H]1O[C@]2(C=C[C@@H]1C)C[C@@H]1C[C@@H](C/C=C(\C)[C@@H](O[C@H]3C[C@H](OC)[C@@H](O[C@H]4C[C@H](OC)[C@@H](O)[C@H](C)O4)[C@H](C)O3)[C@@H](C)/C=C/C=C3\CO[C@@H]4[C@H](O)C(C)=C[C@@H](C(=O)O1)[C@]34O)O2.CO[C@H]1C[C@H](O[C@H]2[C@H](C)O[C@@H](O[C@@H]3/C(C)=C/C[C@@H]4C[C@@H](C[C@]5(C=C[C@H](C)[C@@H](C(C)C)O5)O4)OC(=O)[C@@H]4C=C(C)[C@@H](O)[C@H]5OC/C(=C\C=C\[C@@H]3C)[C@]54O)C[C@@H]2OC)O[C@@H](C)[C@@H]1O` [avermectin b1], for which the phenotypic hit is inactive: 0.

As to `COc1cc([C@@H]2c3cc4c(cc3[C@H](OC(C)=O)[C@H]3COC(=O)[C@H]23)OCO4)cc(OC)c1OC` [podophyllotoxin acetate], the phenotypic hit was inactive: 0.

In the case of `CCCCCCCCCCCCCC(=O)O[C@@H]1[C@@H](C)[C@@]2(O)[C@@H](C=C(CO)C[C@]3(O)C(=O)C(C)=C[C@@H]23)[C@@H]2C(C)(C)[C@]12OC(C)=O` [phorbol myristate acetate], the phenotypic hit is inactive: 0.

Consider `COc1ccc(C(=O)N2CCCC2=O)cc1` [Aniracetam], for which the phenotypic hit is inactive: 0.

With `COc1nc(NC(C)C)nc(NC(C)C)n1` [prometon], the phenotypic hit is inactive: 0.

On to `CCCCOC(=O)c1ccccc1C(=O)OCc1ccccc1` [benzylbutylphthalate], for which the phenotypic hit was inactive: 0.

Turning to `O=C(O)CCCc1ccc(N(CCCl)CCCl)cc1` [chlorambucil], the phenotypic hit was inactive: 0.

Regarding `CC[C@@]1(O)C[C@H](O)c2c(cc3c(c2O)C(=O)c2c(O)ccc(O)c2C3=O)[C@H]1C(=O)OC` [rutilantinone], the phenotypic hit is inactive: 0.

For the compound `CC[C@@H](C)C(=O)O[C@H]1[C@H](O)[C@H]2[C@@H](CN3C[C@@H](C)CC[C@H]3[C@@]2(C)O)[C@@H]2C[C@]34O[C@]5(O)[C@@H](OC(=O)[C@](C)(O)[C@@H](C)O)CC[C@@]3(C)[C@@H]5[C@@H](OC(C)=O)[C@@H](OC(C)=O)[C@H]4[C@@]21O` (stereo in doubt) [protoveratrine b], the phenotypic hit was inactive: 0.

For the compound `CC1=C(O)C(=O)C=C2C1=CC=C1[C@@]2(C)CC[C@@]2(C)[C@@H]3C[C@](C)(C(=O)O)CC[C@]3(C)CC[C@]12C` [celastrol], the phenotypic hit is active: 1.

Consider `CC(=O)Oc1ccc(/C=C/c2cc(OC(C)=O)cc(OC(C)=O)c2)cc1` [triacetylresveratrol], for which the phenotypic hit was inactive: 0.

For `N#C/C(=C\c1ccc(O)cc1)C(=O)O` [alpha-cyano-4-hydroxycinnamic acid], the phenotypic hit is inactive: 0.

Take `Oc1cccc2cccnc12` [oxyquinoline]: the phenotypic hit is inactive: 0.

As for `N.N.[Cl][Pt][Cl]` [cisplatin], the phenotypic hit is inactive: 0.

As to `COc1cc(OC)c2c(c1)OC(c1ccc(OC)c(OC)c1)C(O)C2` (stereo not drawn) [epicatechin, tetramethyl ether], the phenotypic hit is inactive: 0.

As to `CCCN1C[C@H](CSC)C[C@@H]2c3cccc4[nH]cc(c34)C[C@H]21` [Pergolide methanesulfonate], the phenotypic hit was active: 1.

Turning to `OC1CCCCC1N1CCC(c2ccccc2)CC1` (racemic) [(±)-Vesamicol hydrochloride], the phenotypic hit is inactive: 0.

Take `CC(C)N1C(=O)c2ccccc2NS1(=O)=O` [bentazon]: the phenotypic hit is inactive: 0.

Take `c1ccc2c(c1)cc1ccc3cccc4ccc2c1c34` [benzo[a]pyrene]: the phenotypic hit was inactive: 0.

With `CCCCCCCCCc1ccc(O)cc1` [4-nonylphenol], the phenotypic hit is inactive: 0.

On to `COc1ccc2[nH]cc(CCN)c2c1` [mexamine], for which the phenotypic hit was inactive: 0.

Take `CNc1ccc(C(=O)CC(O)CCC(C)C2OC(=O)CC(O)CC(=O)CC(O)CC(O)CC(O)CC(O)CC3(O)CC(O)C(C(=O)OC)C(CC(O[C@@H]4O[C@H](C)[C@@H](O)[C@H](N)[C@@H]4O)/C=C/C=C/C=C/C=C/C=C/C=C/C=C/C2C)O3)cc1.COC(=O)C1C(O)CC2(O)CC(O)CC(O)CC(O)CC(O)CC(=O)CC(O)CC(=O)OC(C(C)CCC(O)CC(=O)c3ccc(N)cc3)C(C)/C=C/C=C/C=C/C=C/C=C/C=C/C=C/C(O[C@@H]3O[C@H](C)[C@@H](O)[C@H](N)[C@@H]3O)CC1O2` (stereo partly drawn) [mepartricin]: the phenotypic hit was inactive: 0.

As for `COC(=O)[C@]1(C)CC[C@]2(C)CC[C@]3(C)C4=CC=C5C(=CC(=O)C(O)=C5C)[C@]4(C)CC[C@@]3(C)[C@@H]2C1` [pristimerin], the phenotypic hit was active: 1.

On to `Cc1ncc(CNC(=O)N(CCCl)N=O)c(N)n1` [nimustine], for which the phenotypic hit was inactive: 0.

Consider `CN1CCCCC1c1ccc(-c2cccnc2)nc1` (stereo not drawn) [anabasamine hydrochloride], for which the phenotypic hit is inactive: 0.

Take `CC1(C)C(=O)C=CC2(C)C3CCC4(C)C(c5ccoc5)CC5OC54C3C(O)CC12` (stereo not drawn) [trichilenone]: the phenotypic hit was inactive: 0.

On to `CC(C)=CCC[C@]1(C)C=Cc2c(O)c3c(c(CC=C(C)C)c2O1)O[C@]12C(=C[C@@H]4C[C@H]1C(C)(C)O[C@@]2(C/C=C(/C)C(=O)O)C4=O)C3=O` [gambogic acid], for which the phenotypic hit is active: 1.

Turning to `C#CCOS(=O)OC1CCCCC1Oc1ccc(C(C)(C)C)cc1` (stereo not drawn) [propargite], the phenotypic hit is inactive: 0.

Take `NCCc1cc(O)c(O)cc1O` [oxidopamine hydrochloride]: the phenotypic hit is inactive: 0.

Consider `C[C@]12CCC3C(CC[C@H]4C[C@H](OS(=O)(=O)O)CC[C@]34C)C1CCC2=O` (stereo partly drawn) [androsterone sodium sulfate], for which the phenotypic hit is inactive: 0.

With `CC[C@@]1(O)C(=O)OCc2c1cc1n(c2=O)Cc2cc3ccccc3nc2-1` [camptothecin], the phenotypic hit is inactive: 0.

Consider `O=C1C[C@@H]2OCC=C3CN4CC[C@]56c7ccccc7N1[C@H]5[C@H]2[C@H]3C[C@H]46` [strychnine], for which the phenotypic hit was inactive: 0.

In the case of `COc1ccc2c(c1OC)C(=O)OC2[C@H]1c2cc3c(cc2CCN1C)OCO3` (stereo in doubt) [1r,9s-hydrastine], the phenotypic hit was inactive: 0.
